Measured values reported in PubChem BioAssay AID463173 (ICCB-Longwood Screening Facility, Harvard Medical School, 2010).
Out of some 52,000 compounds screened, about 4,300 (8.3%) were called active. Cut-off read from the data, not from the text of the source: active = survival mostly below about 52% (no sharp cut-off); inactive = mostly above about 56%. The list shows a part of the results.

What follows are compounds tested on DeltatarO mutant (assay: S. aureus survival, RN4220 and DeltatarO strains – OD600, teichoic acid synthesis inhibitors, primary screen (AID 463173)). Details: S. aureus RN4220 wild type/DeltatarO growth, OD600, 18 h, active compounds read low, screened at 18.75 µg/mL (by protocol).
For `Cc1nnc(SCc2ccccc2Cl)c2cc3occc3n12`, the survival was inactive: 74%. `CC(C)Oc1cccc(C(=O)Nc2ccc(-c3nc4cc(Cl)cc(Cl)c4o3)cc2)c1` was tested, and the survival was inactive: 55%. With `COc1cc(-c2noc(-c3ccc(NC4CCCCC4)c([N+](=O)[O-])c3)n2)cc(OC)c1OC` the survival was inactive: 76%. `O=C(NCCN1CCOCC1)c1ccc(NC(=O)C2COc3ccccc3O2)cc1` (stereo unspecified) was tested, and the survival was inactive: 67%. With `Cc1ccc(NC(=O)CSc2nc(-c3cccs3)cc(C(F)(F)F)n2)cc1C` the survival was inactive: 155%. In the case of `COc1ccc(-c2nn[nH]n2)cc1`, the survival was inactive: 105%. With `CSc1cccc(N2C(=O)N(CC(=O)NCc3ccccc3Cl)c3ccccc3S2(=O)=O)c1` the survival was inactive: 119%. With `CCOc1ccccc1N(C)C(=O)Cn1cnc2onc(-c3ccc(F)cc3)c2c1=O` the survival was inactive: 91%. In the case of `CC(C)CCOc1ccc(Oc2nc(N(C)C)nc(N(C)C)n2)nn1`, the survival was inactive: 62%. In the case of `CCOC(=O)c1cnc(SC2CC(=O)N(c3ccccc3)C2=O)nc1N` (stereo unspecified), the survival was inactive: 82%. With `COc1ccccc1-n1ncc2c(=O)[nH]c(SCC(=O)Nc3cccc(F)c3)nc21` the survival was inactive: 71%. `COc1ccc2c(CNCc3cccs3)c(C(=O)O)n(Cc3ccc(F)cc3Cl)c2c1` was tested, and the survival was inactive: 115%. `CCOc1ccc(C(=O)c2oc3ccccc3c2NC(=O)c2cc(-c3ccccc3)on2)cc1` was tested, and the survival was inactive: 87%. `Cc1ccc(NC(=O)C(Cc2ccccc2)n2cccc2)c(C)c1` (stereo unspecified) was tested, and the survival was inactive: 67%. `O=C(Nc1cccc(C(=O)N2CCN(c3ccc(F)cc3)CC2)c1)c1nsc2ccccc12` was tested, and the survival was inactive: 88%. In the case of `CCCN(C(=O)c1nn(-c2ccc(C)cc2)c(=O)c2c1c1ccccc1n2C)c1ccccc1C`, the survival was inactive: 89%. For `Cc1oc2ccc(O)c(CN3CCN(Cc4ccccc4)CC3)c2c1C(=O)Nc1cccc(Cl)c1C`, the survival was inactive: 72%. With `O=C(Nc1ccc(Oc2ccccc2)cc1)C1CCN(S(=O)(=O)c2ccccc2)CC1` the survival was inactive: 51%. In the case of `CCOC(=O)c1c(NC(=O)c2ccc(S(=O)(=O)N(C)C)cc2)sc2c1CCN(C)C2`, the survival was inactive: 75%. With `Cc1cc(C)c2[nH]c(=O)c(C(c3nnnn3CC3CCCO3)N3CCN(c4ccccc4F)CC3)cc2c1` (stereo unspecified) the survival was inactive: 91%. For `COc1ccc(NC(=O)Cn2c(=O)n(CC3CCCO3)c(=O)c3ccccc32)cc1` (stereo unspecified), the survival was inactive: 102%. With `CCCCCCNc1ncnc2c1sc1nc(N3CCOCC3)c3c(c12)CCCC3` the survival was inactive: 83%. With `CCCCSCCCNC(=O)c1cc(-c2cccnc2)nc2ccc(S(=O)(=O)N3CCC(C)CC3)cc12` the survival was inactive: 83%. For `CCc1ccc(Sc2cc(C(=O)NCCCN3CCCC(C)C3)c3ccccc3n2)cc1` (stereo unspecified), the survival was inactive: 75%. `Cc1ccccc1CCNCc1c(C(=O)O)c(C)n(Cc2c(F)cccc2Cl)c1C` was tested, and the survival was inactive: 85%. With `Cc1ccc(NC(=O)CN2CCN(C3CCCCC3)C(=O)C2=O)cc1` the survival was inactive: 80%. In the case of `O=c1cc(COc2cccc(C(F)(F)F)c2)nc2sc3c(n12)CCCC3`, the survival was inactive: 107%. For `Cc1ccc(-n2ncc(C(=O)N3CCN(C4CCCCC4)CC3)c2C2CCN(C(=O)OC(C)(C)C)CC2)cc1`, the survival was inactive: 82%. With `CCOc1ccc(NC(=O)c2cnn3c(C(F)F)cc(-c4ccc(C)cc4)nc23)cc1` the survival was inactive: 73%. In the case of `CC(=O)c1ccc(N2CCN(C(=O)Cn3ncc4c3-c3ccccc3OC4)CC2)cc1`, the survival was inactive: 61%. For `COc1ccccc1/C=C/c1nc(C#N)c(NC(C)c2ccccc2)o1` (stereo unspecified), the survival was inactive: 70%. With `Cc1c(Cl)cccc1NC(=O)CN1C(=O)CSc2ccc(S(=O)(=O)N3CCCC3)cc21` the survival was inactive: 103%. For `CC(=O)c1cc(-c2ccc(F)cc2)n(CCC(=O)NCc2ccc(C)cc2)c1C`, the survival was inactive: 73%. `Cc1[nH]c2ccc(-c3nnc(SCc4ccc(C(=O)O)cc4)o3)cc2c1C` was tested, and the survival was inactive: 65%. With `CCn1c(=O)c2sccc2n2c(CCCC(=O)N3CCN(c4ccccc4OC)CC3)nnc12` the survival was inactive: 91%. `Cc1ccccc1C(=O)NCc1ccc2c(c1)CCN2C(=O)c1ccccc1` was tested, and the survival was inactive: 84%. With `CCOC(=O)N1CCC(NC(=O)c2cnn(-c3cccc(C)c3)c2C2CCN(C(=O)OC(C)(C)C)CC2)CC1` the survival was inactive: 83%. `CC(C)=CCC(C)(C)CNc1ccc(C)cc1` was tested, and the survival was inactive: 66%. With `COc1ccc(CNC(=O)C(=O)NCC(c2cccs2)S(=O)(=O)c2ccc(C)cc2)cc1` (stereo unspecified) the survival was inactive: 78%. For `O=C(c1ccc(F)cc1)N1c2ncnn2C2(CCCCC2)[C@@H]2CCCC[C@@H]21`, the survival was inactive: 91%. In the case of `Cc1ccc(-c2nsc(NC(=O)c3oc4cc(C)c(Cl)cc4c3C)n2)cc1`, the survival was inactive: 74%. `CCn1c(SCC(=O)Nc2cccc(Cl)c2)nnc1-c1nonc1NC(C)=O` was tested, and the survival was inactive: 106%. `CC(C)NC(=O)c1nn(C)c2c1CS(=O)(=O)c1ccccc1-2` was tested, and the survival was active: 51%. For `COC(=O)c1cc(Cl)ccc1NC(=O)Cn1c(C)cc(C)c(C#N)c1=O`, the survival was inactive: 99%. `CCOc1ccccc1CN(CCc1ccc2c(c1)OCO2)Cc1cc(OC)c(OC)cc1OC` was tested, and the survival was inactive: 56%. For `COc1ccccc1CNc1nc(-c2ccco2)nn1S(=O)(=O)c1ccc(C)cc1`, the survival was inactive: 66%. In the case of `Clc1ccc(CN2CCc3nc(Nc4ccc5c(c4)OCCO5)ncc3C2)cc1`, the survival was inactive: 94%. `COc1ccc2oc(=O)cc(CN3CCN(C(=O)c4ccccc4)CC3)c2c1` was tested, and the survival was active: 41%. In the case of `O=C(Nc1ccc(O)c(-c2nc3ccccc3o2)c1)c1cccs1`, the survival was inactive: 75%. With `O=C(O)C1CCC(N2C(=O)C3C4C=CC(C4)C3C2=O)CC1` (stereo unspecified) the survival was inactive: 105%. With `CCOc1ccc(NC(=O)c2oc3ccccc3c2NC(=O)Cc2ccc(OC)c(OC)c2)cc1` the survival was inactive: 71%. With `Cc1ccc(C)c(CN2C(=O)c3ccccc3Sc3ccc(C(=O)NCCCOC(C)C)cc32)c1` the survival was inactive: 89%. In the case of `CCOC(=O)c1ccc(N2C(=O)c3n[nH]c(C)c3C2c2ccc(C(C)C)cc2)cc1` (stereo unspecified), the survival was inactive: 86%. In the case of `O=C(CSc1n[nH]c(-c2ccccc2Cl)n1)N1CCN(c2ccc(F)cc2)CC1`, the survival was inactive: 77%. With `O=C1CNC(=O)N1Cc1ccc(F)cc1` the survival was inactive: 108%. `CC(C)c1nn2c(=O)cc(COC(=O)c3ccc(NC(=O)c4ccccc4Cl)cc3)nc2s1` was tested, and the survival was inactive: 80%.
